# Source: article PMC6919601, “Identification of Plasmodium dipeptidyl aminopeptidase allosteric inhibitors by high throughput screening” (PLoS ONE, 2019)
# The whole screen tested about 110,000 compounds, of which about 230 (0.21%) showed an effect of 50% or more. This is one part of the list.
# Biological target: DPAP1 (Plasmodium falciparum, UniProt Q8IIJ9)
# Experiment: primary screen, percent inhibition; read by cleavage of a fluorogenic dipeptide substrate; higher = more effect of the substance
# Parameters: species or system P. falciparum D10 trophozoite lysates; single well
# 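Also: 30 min substrate incubation versus DMSO and 10 µM JCP410 controls.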
# Chain of DPAP1 (Q8IIJ9 whole entry, looked up): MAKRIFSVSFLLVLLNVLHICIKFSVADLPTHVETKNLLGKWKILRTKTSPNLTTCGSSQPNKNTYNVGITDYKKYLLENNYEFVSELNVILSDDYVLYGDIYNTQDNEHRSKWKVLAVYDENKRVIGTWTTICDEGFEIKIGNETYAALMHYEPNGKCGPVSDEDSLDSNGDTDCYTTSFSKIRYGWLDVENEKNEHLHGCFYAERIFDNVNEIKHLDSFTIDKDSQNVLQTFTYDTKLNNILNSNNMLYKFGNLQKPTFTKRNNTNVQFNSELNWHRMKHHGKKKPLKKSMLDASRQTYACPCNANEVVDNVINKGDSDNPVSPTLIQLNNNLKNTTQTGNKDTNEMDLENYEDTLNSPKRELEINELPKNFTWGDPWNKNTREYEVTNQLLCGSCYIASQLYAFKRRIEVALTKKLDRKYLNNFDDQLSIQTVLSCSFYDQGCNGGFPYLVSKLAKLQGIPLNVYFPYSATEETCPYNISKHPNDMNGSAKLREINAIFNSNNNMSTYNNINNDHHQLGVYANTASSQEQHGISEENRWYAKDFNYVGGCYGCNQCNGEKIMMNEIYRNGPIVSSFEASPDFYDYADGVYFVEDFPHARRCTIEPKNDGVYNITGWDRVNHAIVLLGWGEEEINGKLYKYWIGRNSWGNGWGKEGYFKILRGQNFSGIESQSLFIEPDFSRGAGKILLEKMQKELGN
row,Compound,% Inhibition @ 10 uM [%]
1,Cc1ccc(C(=O)NC(C(N)=O)C23CC4CC(CC(C4)C2)C3)cc1 (centres unmarked),2.86
2,O=C([C@H](Cc1ccccc1)N1Cc2ccccc2C1=O)N1CCCC1,-0.465
3,O=C(O)c1cccc(NC(=O)c2ccco2)c1,-5.35
4,CCc1ccc(CNCc2c(C(=O)O)n(Cc3ccc(F)cc3)c3cc(C)ccc23)cc1,-1.53
5,COc1ccc(O)c(-c2cc(C(F)(F)C(F)F)nc(-c3ccccc3)n2)c1,-3.41
6,Cc1ccc(Oc2nc3c(C)cccn3c(=O)c2/C=C(\C#N)S(=O)(=O)c2ccccc2)c(C)c1,2
7,CCOC(=O)N1CCN(Cc2nc3c(c(=O)n(C)c(=O)n3C)n2CCCO)CC1,-1.43
8,CCN(CC)CC#CCC(OC)(c1ccccc1)c1ccccc1,-7.7
9,CCc1ccccc1N(CC(=O)Nc1ccccc1)S(=O)(=O)c1ccccc1,-17.7
10,COc1ccccc1-n1c(S)nnc1-c1cn(C)nc1C,2.32
11,Cc1ccc(S(=O)(=O)NC(C)C(=O)Nc2cc(C(F)(F)F)ccc2Cl)cc1 (centres unmarked),-5.46
12,COc1nonc1NC(=O)CCCCCN1C(=O)c2ccccc2C1=O,-2.54
13,O=C(Cn1c(=O)sc2ccccc21)Nc1cccc(F)c1,-10
14,CCCCOc1nc(N)nc(CC)n1,3.98
15,Cc1ccccc1C1CC(=O)NC2=C1C(=O)CC(C)(C)C2 (centres unmarked),-4.53
16,O=C(NCc1ccccn1)c1ccc2nc(-c3ccco3)c(-c3ccco3)nc2c1,2.28
17,Cc1cc(C)nc(-n2nc(C)c3c(=O)oc(C)cc32)n1,-5.2
18,CCc1ccc(NC(=O)c2ccc3c(c2)CCN3S(C)(=O)=O)cc1,-1.28
19,O=C(O)CC(NC(=O)c1ccco1)c1ccccc1 (centres unmarked),-4.57
20,CCCC1=C(C(=O)OCC)C(c2ccc(Br)s2)C(C#N)=C(N)O1 (centres unmarked),-6.82
21,CC(C)C(NC(=O)CN(c1ccccc1)S(=O)(=O)c1ccccc1)C(C)C,0.812
22,Cn1cc(Cl)c(-c2nnc(S)n2C2CCCCC2)n1,-4.77
23,CCCCO/C(O)=C1\C(C)=NC2=C(C(=O)CC(C)(C)C2)C1c1ccc(Cl)c(Cl)c1 (centres unmarked),-6.06
24,COc1c2nc(C)cc(O)c2cc2c(C)c(C)n(C)c12,-2.63
25,O=C(Nc1ccccc1Cl)c1cc2ccccc2oc1=O,0.317

row,Compound,% Inhibition @ 10 uM [%]
1,COc1ccc(C(=O)n2nc(-c3cccnc3)nc2NCc2cccs2)cc1OC,-3.14
2,O=C(c1ccccc1)c1cncc(Br)c1,1.54
3,Fc1ccc(N2CCN(CCCc3ccccc3)CC2)cc1,-7.17
4,CCC(C)N1C(=O)S/C(=C/c2ccc(OC)cc2OC)C1=O (centres unmarked),2.27
5,COc1cc(/C=C2\N=C(c3ccccc3F)OC2=O)cc(OC)c1OC,-0.441
6,CCO/C(O)=C1/C(C)=Nc2nc(SCc3cccnc3)nn2C1c1ccc(Br)cc1 (centres unmarked),1.02
7,C(#CCN1CCOCC1)CC(c1ccccc1)c1ccccc1,-8.21
8,COc1cccc(CN2CCN(C(=O)c3c(OC)cccc3OC)CC2)c1,7.27
9,COc1ccccc1-c1ccc(C(=O)N[C@@H](CC(C)C)C(=O)NCC#N)s1,-4.72
10,Cc1cc(C)c(S(=O)(=O)N(C)CC(=O)NCc2ccc(Cl)cc2)c(C)c1,-1.35
11,Cc1ccc(C(=O)N/C(=C\c2ccc(F)cc2)C(=O)Nc2ccccc2)cc1,2.24
12,CCOC(=O)c1c(S(=O)(=O)N2CCC3(CC2)OCCO3)c(C)n(C)c1C,6.29
13,CSc1nc2n(n1)C(c1cccs1)C1=C(O)CCCC1=N2 (centres unmarked),-1.62
14,O=C1c2cccc3cccc(c23)N1c1ccc(-c2ccccc2)cc1,1.13
15,COc1ccc(-n2nnnc2C2CCN(S(=O)(=O)c3ccc(OC(F)(F)F)cc3)CC2)cc1,1.67
16,CN(CCCNc1ncnc2onc(-c3ccc(Cl)cc3)c12)Cc1ccccc1,-0.495
17,O=C(O)C(Cc1ccccc1)P(=O)(O)CN1CCOCC1 (centres unmarked),-5.36
18,CC1(C)CC2=Nc3ccccc3NC(c3ccco3)C2=C(O)C1 (centres unmarked),3.83
19,CC(C)CC(=O)Nc1ccc2c(c1)C(=O)N(C1CCCCC1)C2=O,-5.13
20,COc1cc(C(=O)Nc2nnc(-c3ccccc3Cl)s2)cc(OC)c1OC,21.9
21,CCC(C)(C)CC(NC(=O)OCc1ccccc1)C(=O)NCC#N (centres unmarked),-3.04
22,CCOc1ccccc1C1C(C#N)=C(N)Oc2c1ccc1ccccc21 (centres unmarked),-0.771
23,Cc1ccc(NC(=O)CCc2ccccc2)cc1O,-0.884
24,COc1cccc(OCCn2cccc2/C=C2\C(=N)N3N=C(N4CCCCC4)SC3=NC2=O)c1,1.72
25,O=C(Cc1ccccc1)Nc1ccc2oc(-c3cccc(F)c3)nc2c1,9.75

row,Compound,% Inhibition @ 10 uM [%]
1,CC(NC(=O)C1CCCN(c2nnc(-n3cccc3)s2)C1)c1ccc2c(c1)OCCO2 (centres unmarked),-0.522
2,Clc1nc(-c2ccccc2)cc(-c2ccccc2)n1,-3.82
3,Cc1ccc(S(=O)(=O)c2nnn(-c3ccc(C(C)C)cc3)c2N)cc1,1.02
4,O=C(NCCN1CCOCC1)c1cc(-c2ccccc2F)no1,-4.8
5,O=C(c1cc2cc(Br)ccc2oc1=O)N1CCOCC1,-6.78
6,COc1cccc(S(=O)(=O)NCCc2ccc(OC)c(OC)c2)c1,3.9
7,COC(=O)C1=CN(Cc2ccc(OC)cc2)C=C(C(=O)OC)C1c1cc(Cl)c(O)c(OC)c1,0.219
8,CC1CCCCC1NC(=O)CCNS(=O)(=O)c1ccc2nc(O)ccc2c1 (centres unmarked),-5.85
9,COc1ccc(C(=O)Nc2ccc(OC)c(OC)c2)c(OC)c1,0.634
10,O=C(O)c1nnn(Cc2ccccc2Cl)c1C(=O)O,-1.71
11,CCOC(=O)N1CCN(S(=O)(=O)c2c(C)nc3scc(C)n3c2=O)CC1,0.402
12,CC1=C(C(=O)Nc2ccc(C)cn2)C(c2ccc(Cl)cc2)C2=C(O)CCCC2=N1 (centres unmarked),-4.49
13,O=C(O)c1cc(S(=O)(=O)N2CCCCCC2)c(Cl)cc1Cl,-1.15
14,CN(CCCNC(=O)c1ccc(CS(=O)(=O)Cc2cccc(Cl)c2)o1)Cc1ccccc1,-4.53
15,O=C(Cn1nnc(-c2ccccc2Cl)n1)N1CCOCC1,1.81
16,CCCC12CN3CC(CCC)(CN(C1)C3c1cn(CC)c3ccccc13)C2=O (centres unmarked),-3.08
17,Cc1cc(Cl)ccc1OCC(=O)Nc1ccc(S(=O)(=O)NC(C)(C)C)cc1,2.74
18,Cc1ccc(Cl)c(OCc2nnc3n2N=C(c2ccccc2)CS3)c1,1.91
19,Cc1ccc(C(=O)C2=C(O)C(=O)N(CCc3ccccc3)C2c2ccncc2)o1 (centres unmarked),-17.4
20,COc1ccc(CN2CCN(Cc3ccccc3)CC2)c(OC)c1,-4.6
21,COc1ccc(OC)c(C2C(C#N)=C(N)Oc3[nH]nc(-c4cc(OC)c(OC)c(OC)c4)c32)c1 (centres unmarked),-0.864
22,Cc1cc(C)c2c(n1)sc1nc(O)c3cccn3c12,-4.49
23,COc1ccccc1C(=O)Nc1cccc(O)c1,-7.08
24,CN(CCNC(=O)c1ccc(CS(=O)(=O)c2c(Cl)cccc2Cl)o1)CCc1ccccc1,-4.71
25,CC(=O)NCCNc1nc2c(S(=O)(=O)c3ccccc3)nnn2c2ccc(Cl)cc12,0.291

row,Compound,% Inhibition @ 10 uM [%]
1,C=C(C)CC(C(=O)NCC#N)c1csc(-c2ccccc2)n1 (centres unmarked),-4.72
2,CC(C(=O)N1CCN(c2ccc(F)cc2)CC1)N1C(=O)c2ccccc2C1=O (centres unmarked),-3.41
3,CC[n+]1cccc(C(=O)N2c3c(O)nc(NC(=O)C(C)C)nc3NC(C)C2C)c1 (centres unmarked),-6.62
4,O=c1c2c(F)c(F)c(F)c(F)c2on2c3c(nc12)CCCC3,3.36
5,Cc1ccsc1/C=C1\Cc2ccccc2C1=O,1.07
6,CN(C)c1ccnc(Sc2ccccc2)c1C#N,-2.37
7,COc1cc(/C=C(\C#N)c2nc3cc(C)ccc3[nH]2)cc(Br)c1OC,18.2
8,CC1=CC2=NC(=O)/C(=C\c3ccc(OCCOc4ccc(C)cc4C)cc3)C(=N)N2O1,-1.43
9,CCOc1ccc(C2C3=C(O)CCCC3=NC(C)=C2C(=O)Nc2cccc(C)n2)cc1 (centres unmarked),-2.87
10,COc1ccc(C(=O)Nc2sc3c(c2C(N)=O)CCCCCC3)cc1OC,11.2
11,Cc1cc(C)n(CCCNC(=O)c2cc(F)c(F)cc2Cl)n1,-2.19
12,Cc1cccc(N2CCN(C(=O)c3ccc(Br)o3)CC2)c1C,-0.67
13,Cc1noc(C)c1CCNc1ncnc2onc(-c3ccc(Cl)cc3)c12,-7.33
14,COc1cc2c(cc1OC)C(COc1cc(C)cc(C)c1)N(C(=O)C(C)C)CC2 (centres unmarked),7.48
15,CC(C)(C)OC(=O)N1CC2=C(OC(N)=C(C#N)C2c2ccc(F)cc2)/C(=C/c2ccc(F)cc2)C1 (centres unmarked),-3.26
16,O=C(NCCC1=CCCCC1)C1CCCN(S(=O)(=O)N2CCOCC2)C1 (centres unmarked),-7.53
17,CO/C(O)=C1\C(C)=NC2=C(C(=O)CC(c3ccccc3)C2)C1c1ccc(O)c(OC)c1 (centres unmarked),-1.03
18,COc1ccc(C2C(C#N)=C(N)OC3=C2C(=O)CCC3)cc1COc1ccc(F)cc1F (centres unmarked),0.673
19,CS(=O)(=O)N(CC(=O)NCc1ccccc1Cl)Cc1ccccc1,-8.92
20,COc1ccc(CNCc2ccc3c(c2)OCO3)cc1,-5.44
21,CN1CCC(N(C)Cc2cccc(Cl)c2Cl)CC1,1.63
22,Fc1ccc(N2CCN(Cc3ccc(F)c(Br)c3)CC2)cc1,-1.77
23,Cc1nn(C(=O)c2ccc(Cl)cc2Cl)c(N)c1-c1ccccc1,-4.35
